Data from the supplement of paper PMC8728848.
This is one part of the list.

Tests used:
Experiment in all cases: glycan array binding signal (z-score within array); higher = stronger binding
Conditions in all cases: glycan notation: IUPAC condensed, linker removed
Fuc(a1-2)Gal = biological target: Fuc(a1-2)Gal
How it was run: (§1)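 From the Consortium for Functional Glycomics database, 3228 arrays were curated, keeping only those whose protein sequence was available. Binding is given as a within-array Z-score averaged across arrays sharing a protein sequence and across linkers. Negative Z-scores can be read as non-binding.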

Fuc(a1-2)Gal(b1-3)GalNAc = biological target: Fuc(a1-2)Gal(b1-3)GalNAc
How it was run: as §1

[1] = biological target: Fuc(a1-2)Gal(b1-3)GalNAc(a1-3)[Fuc(a1-2)]Gal(b1-4)Glc
How it was run: as §1

[2] = biological target: Fuc(a1-2)Gal(b1-3)GalNAc(a1-3)[Fuc(a1-2)]Gal(b1-4)GlcNAc
How it was run: as §1

[3] = biological target: Fuc(a1-2)Gal(b1-3)GalNAc(b1-3)Gal
How it was run: as §1

[4] = biological target: Fuc(a1-2)Gal(b1-3)GalNAc(b1-3)Gal(a1-4)Gal(b1-4)Glc
How it was run: as §1

[5] = biological target: Fuc(a1-2)Gal(b1-3)GalNAc(b1-4)[Neu5Ac(a2-3)]Gal(b1-4)Glc
How it was run: as §1

Fuc(a1-2)Gal(b1-3)GlcNAc = biological target: Fuc(a1-2)Gal(b1-3)GlcNAc
How it was run: as §1

[6] = biological target: Fuc(a1-2)Gal(b1-3)GlcNAc(b1-2)Man(a1-3)[Fuc(a1-2)Gal(b1-3)GlcNAc(b1-2)Man(a1-6)]Man(b1-4)GlcNAc(b1-4)GlcNAc
How it was run: as §1

[7] = biological target: Fuc(a1-2)Gal(b1-3)GlcNAc(b1-2)Man(a1-3)[Fuc(a1-2)Gal(b1-3)GlcNAc(b1-2)Man(a1-6)]Man(b1-4)GlcNAc(b1-4)[Fuc(a1-6)]GlcNAc
How it was run: as §1

[8] = biological target: Fuc(a1-2)Gal(b1-3)GlcNAc(b1-3)Gal(b1-4)Glc
How it was run: as §1

[9] = biological target: Fuc(a1-2)Gal(b1-3)GlcNAc(b1-3)GalNAc
How it was run: as §1

[10] = biological target: Fuc(a1-2)Gal(b1-3)GlcNAc(b1-3)[Fuc(a1-2)Gal(b1-3)GlcNAc(b1-6)]GalNAc
How it was run: as §1

[11] = biological target: Fuc(a1-2)Gal(b1-3)GlcNAc(b1-3)[Fuc(a1-3)[Gal(b1-4)]GlcNAc(b1-6)]Gal(b1-4)Glc
How it was run: as §1

[12] = biological target: Fuc(a1-2)Gal(b1-3)GlcNAc(b1-3)[Gal(b1-4)GlcNAc(b1-6)]Gal(b1-4)Glc
How it was run: as §1

[13] = biological target: Fuc(a1-2)Gal(b1-3)GlcNAc(b1-3)[Neu5Ac(a2-6)Gal(b1-4)GlcNAc(b1-6)]Gal(b1-4)Glc
How it was run: as §1

[14] = biological target: Fuc(a1-2)Gal(b1-3)GlcNAc6S
How it was run: as §1

[15] = biological target: Fuc(a1-2)Gal(b1-3)[Fuc(a1-4)]GlcNAc
How it was run: as §1

[16] = biological target: Fuc(a1-2)Gal(b1-3)[Fuc(a1-4)]GlcNAc(b1-2)Man(a1-3)[Fuc(a1-2)Gal(b1-3)[Fuc(a1-4)]GlcNAc(b1-2)Man(a1-3)]Man(b1-4)GlcNAc(b1-4)GlcNAc
How it was run: as §1

[17] = biological target: Fuc(a1-2)Gal(b1-3)[Fuc(a1-4)]GlcNAc(b1-2)Man(a1-3)[Fuc(a1-2)Gal(b1-3)[Fuc(a1-4)]GlcNAc(b1-2)Man(a1-6)]Man(b1-4)GlcNAc(b1-4)GlcNAc
How it was run: as §1

[18] = biological target: Fuc(a1-2)Gal(b1-3)[Fuc(a1-4)]GlcNAc(b1-2)Man(a1-3)[Fuc(a1-2)Gal(b1-3)[Fuc(a1-4)]GlcNAc(b1-2)Man(a1-6)]Man(b1-4)GlcNAc(b1-4)[Fuc(a1-6)]GlcNAc(b1-4)[Fuc(a1-6)]GlcNAc
How it was run: as §1

[19] = biological target: Fuc(a1-2)Gal(b1-3)[Fuc(a1-4)]GlcNAc(b1-3)[Fuc(a1-3)[Gal(b1-4)]GlcNAc(b1-6)]Gal(b1-4)Glc
How it was run: as §1

[20] = biological target: Fuc(a1-2)Gal(b1-3)[Fuc(a1-4)]GlcNAc(b1-3)[Gal(b1-4)GlcNAc(b1-6)]Gal(b1-4)Glc
How it was run: as §1

[21] = biological target: Fuc(a1-2)Gal(b1-4)Fuc(a1-3)]GlcNAc(b1-2)Man(a1-3)[Fuc(a1-2)Gal(b1-4)[Fuc(a1-3)]GlcNAc(b1-2)Man(a1-6)]Man(b1-4)GlcNAc(b1-4)GlcNAc
How it was run: as §1

Fuc(a1-2)Gal(b1-4)Glc = biological target: Fuc(a1-2)Gal(b1-4)Glc
How it was run: as §1

Fuc(a1-2)Gal(b1-4)Glc6S = biological target: Fuc(a1-2)Gal(b1-4)Glc6S
How it was run: as §1

Fuc(a1-2)Gal(b1-4)GlcNAc = biological target: Fuc(a1-2)Gal(b1-4)GlcNAc
How it was run: as §1

[22] = biological target: Fuc(a1-2)Gal(b1-4)GlcNAc(b1-2)Man
How it was run: as §1

[23] = biological target: Fuc(a1-2)Gal(b1-4)GlcNAc(b1-2)Man(a1-3)[Fuc(a1-2)Gal(b1-4)GlcNAc(b1-2)Man(a1-6)]Man(b1-4)GlcNAc(b1-4)GlcNAc
How it was run: as §1

[24] = biological target: Fuc(a1-2)Gal(b1-4)GlcNAc(b1-2)Man(a1-3)[Fuc(a1-2)Gal(b1-4)GlcNAc(b1-2)Man(a1-6)]Man(b1-4)GlcNAc(b1-4)[Fuc(a1-6)]GlcNAc
How it was run: as §1

B1: PpFlo1 (Pichia pastoris) (protein)
chain: MGSSHHHHHHSSGLVPRGSHMQESGDGDISDSAYACDIDATRYDGFNATIYEFQPGDGRLTRDPVFMSTGYLNRTQLHSITGVTDPGFSIYTPGVPTTTLYGIPNVNWENLLLELKGYFRAEVSGDYGLSLRNIDDSAILFFGKETAFQCCNENSISNEASTDYSLFTIFRQEGDETTNLDSFTYTQYLEAGKYYPVRTFFVNIERHAVFNFTMTLPDGTELTDFHNYIYQFGALDEEQCQA
glycan array binding signal (z-score) (Fuc(a1-2)Gal): -0.417 | glycan array binding signal (z-score) (Fuc(a1-2)Gal(b1-3)GalNAc): -0.575 | glycan array binding signal (z-score) [1]: -0.102 | glycan array binding signal (z-score) [2]: -0.343 | glycan array binding signal (z-score) [3]: -0.068 | glycan array binding signal (z-score) [4]: -0.29 | glycan array binding signal (z-score) [5]: -0.322 | glycan array binding signal (z-score) (Fuc(a1-2)Gal(b1-3)GlcNAc): -0.144 | glycan array binding signal (z-score) [6]: -0.23 | glycan array binding signal (z-score) [7]: -0.431 | glycan array binding signal (z-score) [8]: -0.455 | glycan array binding signal (z-score) [9]: -0.361 | glycan array binding signal (z-score) [10]: 0.121 | glycan array binding signal (z-score) [11]: -0.681 | glycan array binding signal (z-score) [12]: -0.398 | glycan array binding signal (z-score) [13]: -0.076 | glycan array binding signal (z-score) [14]: 0.053 | glycan array binding signal (z-score) [15]: -0.484 | glycan array binding signal (z-score) [16]: -0.426 | glycan array binding signal (z-score) [17]: 0.443 | glycan array binding signal (z-score) [18]: -0.095 | glycan array binding signal (z-score) [19]: -0.358 | glycan array binding signal (z-score) [20]: -0.099 | glycan array binding signal (z-score) [21]: 0.395 | glycan array binding signal (z-score) (Fuc(a1-2)Gal(b1-4)Glc): -0.289 | glycan array binding signal (z-score) (Fuc(a1-2)Gal(b1-4)Glc6S): -0.627 | glycan array binding signal (z-score) (Fuc(a1-2)Gal(b1-4)GlcNAc): -0.381 | glycan array binding signal (z-score) [22]: -0.261 | glycan array binding signal (z-score) [23]: -0.373 | glycan array binding signal (z-score) [24]: 0.665
